Target: T1, mouse CD86 ligand (mouse, UniProt P42082 24-244, limits assumed)
T1 sequence (looked up): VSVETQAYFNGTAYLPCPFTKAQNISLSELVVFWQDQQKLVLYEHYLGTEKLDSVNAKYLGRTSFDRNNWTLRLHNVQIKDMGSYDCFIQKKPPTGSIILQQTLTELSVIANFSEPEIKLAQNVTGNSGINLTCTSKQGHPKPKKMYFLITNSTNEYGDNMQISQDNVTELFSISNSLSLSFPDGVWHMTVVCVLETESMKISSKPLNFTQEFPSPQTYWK
Experiment: BLI, biotinylated mouse CTLA4 (B-mTarget2) on streptavidin sensor, then antibody or CD86 ligand

B1: mouse CTLA4 (target of muSNIPER and anti-muCTLA4) (receptor)
chain: not shown
modifications: biotinylated in the blocking assay
notes: also called Target 2
binding result: binds

Source: US20220153844A1 (INVENRA, published 2022)
